Assay results from PubChem BioAssay AID1508624 (National Center for Advancing Translational Sciences (NCATS), 2021).
About 120 (0.25%) of roughly 48,000 compounds were called active. Another 4% or so got no clear call; they are omitted. The call rests on the fitted dose curve; in most records, active means well fitted activation curve with a large enough effect; inconclusive means small, poorly fitted or top-dose-only effect, or another doubt; inactive means no such curve, though single readings can be large or run the other way. The list shows a part of the results.

Assay: Primary qHTS for Identification of Small Molecule Activators of Huntingtin-Antisense Promoter Activity; further: nearly all actives have a fitted effect of over 55% in size
Conditions: HEK293 HTT-AS promoter firefly luciferase reporter, 24 h; series mostly up to 57.5 µM; activity change, positive = activation: at the top concentration
Procedure, shortened: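 HEK293 Fluc reporter, 2,500 cells/well, 24 h pre-culture; cpds up to 57.5 uM final, 24 h 37 degrees C; Dual-Glo, 10 min RT; normalized vehicle = 0%, zero RLU = -100%.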

Activity change, positive = activation, inactive:
CCOC(=O)c1ccccc1NC(=O)Cc1c(C(=O)O)c(C)cn1C -20.6%
CCOC(=O)c1ccc(N2C(=O)c3n[nH]c(C)c3C2c2ccc(O)c(OC)c2)cc1 (configuration not stated) -18.7%
COc1ccc(N2CCN(C(=O)Cn3cnc4sc(C)c(S(=O)(=O)N5CCC(C)CC5)c4c3=O)CC2)cc1 9.93%
Cc1cccc(CS(=O)(=O)CC2Nc3ccc(C(=O)NCc4ccccc4)cc3NC2=O)c1 (configuration not stated) -24.9%
Cc1ccc(-n2ncc(C(=O)N3CCN(c4ccccn4)CC3)c2C2CCN(C(=O)OC(C)(C)C)CC2)cc1C -1.82%
Cc1cc(=O)oc2c3c(ccc12)OCN(Cc1ccccc1Cl)C3 2.78%
COc1ccc(NC(=O)Cn2cnc3c(nc4n3CCCCC4)c2=O)c(OC)c1 -5.79% [at 11.5 µM, percent change from vehicle, -100% = no light]
COCCCn1c(=N)c(C(=O)NC2CCCCC2)cc2c(=O)n3ccccc3nc21 -8.03%
COc1ccc(C2=CC(c3ccc(N(C)C)cc3)n3nnnc3N2)cc1 (configuration not stated) 19.9%
Cc1c(CNC2CCCCCC2)c(C(=O)O)c(C)n1Cc1c(F)cccc1Cl -15.2%
Cc1oc2ncn(CC(C)C)c(=O)c2c1C(=O)N1CCN(c2ccccc2F)CC1 -1.33%
CCc1ccc(NC(=O)C2(c3cccs3)CCOCC2)cc1 -15.5%
Cc1cc(C)c(NC(=O)CN(c2ccccc2)S(=O)(=O)N(C)C)c(C)c1 -20.5%
O=C(Nc1ccc2oc(-c3ccc4ccccc4c3)nc2c1)c1cccc(Cl)c1Cl 20.2%
CSc1ccc(CCNC(=O)CN2C(=O)COc3ccc(S(=O)(=O)N4CCCC4)cc32)cc1 -32.8%
CCOc1ccc(NC(=O)c2cnn3c2NC(c2ccccc2)=CC3c2cccc(OC)c2OC)cc1 (configuration not stated) -31.3%
Clc1ccc(-c2nnn3c2nc(N2CCCCC2)c2ccccc23)cc1 -1.52%
Cc1ccc(NC(=O)N(Cc2c[nH]c3ccccc23)C2CCCCCC2)cc1C 6.56%
O=c1n(Cc2ccc([N+](=O)[O-])cc2)c2ccccc2c2nc(-c3ccccc3)nn12 -5.56%
Cc1c(NC(=O)Nc2ccccc2C(F)(F)F)c(=O)n(-c2ccccc2)n1C 0.905%
CCOc1ccc(C2=C(C(C)=O)Sc3nnc(C)n3N2C(C)=O)cc1 -10.1%
Cn1c(=O)n(C)c2cc(CNCc3ccc(F)cc3)ccc21 -2.97%
Cc1ccc(C(=O)N2CCc3cc(CNC(=O)c4ccccc4F)ccc32)cc1 -28.3%
CCOc1ccc(NC(=O)c2cccc3c(=O)c4c([nH]c23)CCCC4)cc1 -8.45%
Cc1cc(C)cc(-n2c(SCC(=O)Nc3ccccc3F)nc3c(oc4ccccc43)c2=O)c1 -23%
O=C(CS(=O)(=O)c1ccc(Cl)cc1)Nc1nc2ccc(Br)cc2s1 -13.4%
COc1ccc(CCNC(=O)CCN2N=C(c3ccccc3)CCC2=O)cc1OC -7.76%
COc1cc(Cl)c(C)cc1NC(=O)Cn1cnc2sc(C)c(S(=O)(=O)N3CCCCC3)c2c1=O -25%
Cc1noc(NS(=O)(=O)c2ccc(NC(=O)COc3ccccc3Br)cc2)c1C -26.7%
CCOc1ccccc1NC(=O)Nc1ccccc1OCc1cc(=O)n2ccccc2n1 0.382%
Cc1ccc(CCNC(=O)c2ccc(CS(=O)(=O)Cc3ccc(Cl)cc3)o2)cc1 -12.6%
CN(CC(=O)NCc1ccc(Cl)cc1)S(=O)(=O)c1ccc2c(c1)c(=O)n(C)c(=O)n2C -14.1%
CCOC(=O)c1scc(-c2ccc(C)cc2)c1S(=O)(=O)Nc1cc(C)ccc1C -34.2%
CCOC(=O)C1=C(C)NC2=C(C(=O)CC(C)(C)C2)C1c1ccc(-c2ccccc2)cc1 (configuration not stated) -29.3%
COc1cc(/C=C/C(=O)O[C@H]2CC[C@]34C[C@]35CC[C@]3(C)[C@@H]([C@H](C)CCC=C(C)C)CC[C@@]3(C)[C@@H]5CC[C@H]4C2(C)C)ccc1O -3.57%
CCOc1ccccc1NC(=O)Cn1c(=O)n(-c2ccc(C)c(C)c2)c(=O)c2c(C)c(C(=O)N(C)C)sc21 -1.26%
CC(Nc1ncnc2c1cnn2-c1cccc(Cl)c1)c1ccccc1 (configuration not stated) 29.4%
COc1cccc(-c2nnc(SCC(=O)N3CCc4ccccc43)o2)c1 -3.39%
Cc1cc2c(cc1C)NC(CC(=O)Nc1cccc(C)c1C)C(=O)N2 (configuration not stated) -6.63%
CCS(=O)(=O)c1c(S(=O)(=O)CC)c2cc(C(C)(C)C)ccn2c1C(=O)c1ccc(F)cc1 -22.2%
O=C(NCc1ccc(Cl)cc1)C(=O)NCC(c1cccnc1)N1CCN(c2ccccc2)CC1 (configuration not stated) -57.1%
COC(=O)c1sc2cccc(F)c2c1S(=O)(=O)NCc1ccc(F)cc1 3.62%
COc1ccc(C2CC(=O)N(Cc3cccc(C)c3)c3c2c(C)nn3-c2nc(C)cc(C)n2)c(OC)c1 (configuration not stated) -19.1%
Cc1ccccc1-n1c(=O)c2ccccc2n(Cc2ccc(F)cc2)c1=O -25.8%
CCOC(=O)c1cnc2c(Cl)c(Cl)ccc2c1Nc1ccc(N(C)C)cc1 -5.64%
COc1ccc(-n2c(=O)c3c4c(sc3n(Cc3c(F)cccc3Cl)c2=O)CN(C(C)=O)CC4)cc1OC -9.94%
CCOC(=O)c1ccccc1NC(=O)CN(c1cc(C(F)(F)F)ccc1Cl)S(C)(=O)=O -29.9%
CCCc1cc(C(N)=S)ccn1
Cc1ccc(-c2noc(CN(C(=O)c3ccc(C(C)(C)C)cc3)C(C)C)n2)cc1 -24.5%
COc1cccc(NC(=O)Cn2c(=O)c3cccn3c3ccc(F)cc32)c1 -31%
O=S(=O)(c1ccccc1)n1nc(-c2ccc(Cl)cc2)nc1NCc1ccc(F)cc1 -21.8%
CCCCSCCCNC(=O)c1cn(CC)c2ccc(S(=O)(=O)N(C)C3CCCCC3)cc2c1=O -31.6%
COc1cccc(-c2nc(SCC(=O)NCc3ccccc3)c3c(=O)n(C)c(=O)n(C)c3n2)c1 3.33%
Cc1ccc(CCNC(=O)CCS(=O)(=O)c2ccc3c(c2)oc(=O)n3C)cc1 8.34% [at 11.5 µM, percent change from vehicle, -100% = no light]
O=C(Cn1ccc2cc(S(=O)(=O)N3CCCCCC3)ccc21)NCCc1ccccc1Cl -29.6%
COc1cccc(N2CCN(S(=O)(=O)c3ccc(-c4cc(C(F)(F)F)on4)s3)CC2)c1 -8.39%
CCCOc1ccc(C(=O)Nc2cccc(NC(=O)c3ccc(Cl)cc3Cl)c2)cc1 5.01% [at 11.5 µM, percent change from vehicle, -100% = no light]
